Measurements published in the supplement of paper PMC4604168 (melanoma cell lines).
Some of the results follow. Most values come without repeats; read them as rough.

tested on: COLO829; assay: cell count relative to DMSO control; melanoma cells; higher = more viable cells; conditions: library dose: low library concentration; 72 h
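Also: cell number obtained by counting DAPI-stained nuclei in high-throughput microscope images with image analysis software, screen run in 1,536-well plates.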

Compound | cell count
CC[C@]1(O)C[C@H]2CN(CCc3c([nH]c4ccccc34)[C@@](C(=O)OC)(c3cc4c(cc3OC)N(C=O)[C@H]3[C@@](O)(C(=O)OC)[C@H](OC(C)=O)[C@]5(CC)C=CCN6CC[C@]43[C@@H]65)C2)C1 [vincristine] + Cn1c(=O)n(-c2ccc(C(C)(C)C#N)cc2)c2c3cc(-c4cnc5ccccc5c4)ccc3ncc21 [NVP-BEZ235] (first compound 0.0001 µM, partner dose 0.004 µM) | 86.9%
CC[C@]1(O)C[C@H]2CN(CCc3c([nH]c4ccccc34)[C@@](C(=O)OC)(c3cc4c(cc3OC)N(C=O)[C@H]3[C@@](O)(C(=O)OC)[C@H](OC(C)=O)[C@]5(CC)C=CCN6CC[C@]43[C@@H]65)C2)C1 [vincristine] + CO[C@H]1C[C@@H]2CC[C@@H](C)[C@@](O)(O2)C(=O)C(=O)N2CCCC[C@H]2C(=O)O[C@H]([C@H](C)C[C@@H]2CC[C@@H](OCCO)[C@H](OC)C2)CC(=O)[C@H](C)/C=C(\C)[C@@H](O)[C@@H](OC)C(=O)[C@H](C)C[C@H](C)/C=C/C=C/C=C/1C [everolimus] (first compound 0.0001 µM, partner dose 0.02 µM) | 70.6%
N#CC[C@H](C1CCCC1)n1cc(-c2ncnc3[nH]ccc23)cn1 [ruxolitinib] + CC[C@]1(O)C[C@H]2CN(CCc3c([nH]c4ccccc34)[C@@](C(=O)OC)(c3cc4c(cc3OC)N(C=O)[C@H]3[C@@](O)(C(=O)OC)[C@H](OC(C)=O)[C@]5(CC)C=CCN6CC[C@]43[C@@H]65)C2)C1 [vincristine] (first compound 1 µM, partner dose 0.0001 µM) | 92.8%
N#CC[C@H](C1CCCC1)n1cc(-c2ncnc3[nH]ccc23)cn1 [ruxolitinib] + O=C(Nc1ccccc1)c1cc([N+](=O)[O-])ccc1Cl [GW9662] (first compound 1 µM, partner dose 2 µM) | 98.1%
N#CC[C@H](C1CCCC1)n1cc(-c2ncnc3[nH]ccc23)cn1 [ruxolitinib] + CC(=O)O[C@@]12CO[C@@H]1C[C@H](O)[C@@]1(C)C(=O)[C@H](O)C3=C(C)[C@@H](OC(=O)[C@H](O)[C@@H](NC(=O)OC(C)(C)C)c4ccccc4)C[C@@](O)([C@@H](OC(=O)c4ccccc4)[C@H]21)C3(C)C [Docetaxel] (first compound 1 µM, partner dose 0.0001 µM) | 63.3%
N#CC[C@H](C1CCCC1)n1cc(-c2ncnc3[nH]ccc23)cn1 [ruxolitinib] + COc1ccc(Cl)c(Nc2nc3ccccc3nc2NS(=O)(=O)c2cccc(NC(=O)C(C)(C)N)c2)c1 [XL147] (first compound 1 µM, partner dose 0.8 µM) | 125%
N#CC[C@H](C1CCCC1)n1cc(-c2ncnc3[nH]ccc23)cn1 [ruxolitinib] + Cc1cn(-c2cc(NC(=O)c3ccc(C)c(Nc4nccc(-c5cccnc5)n4)c3)cc(C(F)(F)F)c2)cn1 [nilotinib] (first compound 1 µM, partner dose 0.2 µM) | 105%
CC[C@]1(O)C[C@H]2CN(CCc3c([nH]c4ccccc34)[C@@](C(=O)OC)(c3cc4c(cc3OC)N(C=O)[C@H]3[C@@](O)(C(=O)OC)[C@H](OC(C)=O)[C@]5(CC)C=CCN6CC[C@]43[C@@H]65)C2)C1 [vincristine] + C[C@@H](Oc1cc(-c2cnn(C3CCNCC3)c2)cnc1N)c1c(Cl)ccc(F)c1Cl [Crizotinib] (first compound 0.0001 µM, partner dose 0.2 µM) | 91.1%
N#CC[C@H](C1CCCC1)n1cc(-c2ncnc3[nH]ccc23)cn1 [ruxolitinib] + COc1ccc(C2=N[C@@H](c3ccc(Cl)cc3)[C@@H](c3ccc(Cl)cc3)N2C(=O)N2CCNC(=O)C2)c(OC(C)C)c1 [Nutlin-3] (first compound 1 µM, partner dose 0.1 µM) | 127%
N#CC[C@H](C1CCCC1)n1cc(-c2ncnc3[nH]ccc23)cn1 [ruxolitinib] + Cn1sc(=O)n(Cc2ccccc2)c1=O [TDZD-8] (first compound 1 µM, partner dose 0.4 µM) | 92.8%
CC[C@]1(O)C[C@H]2CN(CCc3c([nH]c4ccccc34)[C@@](C(=O)OC)(c3cc4c(cc3OC)N(C=O)[C@H]3[C@@](O)(C(=O)OC)[C@H](OC(C)=O)[C@]5(CC)C=CCN6CC[C@]43[C@@H]65)C2)C1 [vincristine] + O=C(O)[C@@H]1[O][Sb](=[O])([O][Sb]2(=[O])[O][C@H]([C@H](O)CO)[C@H](O)[C@H](C(=O)O)[O]2)[O][C@H]([C@H](O)CO)[C@@H]1O [stibogluconate] (first compound 0.0001 µM, partner dose 2 µM) | 123%
N#CC[C@H](C1CCCC1)n1cc(-c2ncnc3[nH]ccc23)cn1 [ruxolitinib] + Nc1cccc2c1CN(C1CCC(=O)NC1=O)C2=O [lenalidomide] (first compound 1 µM, partner dose 1 µM) | 116%
CC[C@]1(O)C[C@H]2CN(CCc3c([nH]c4ccccc34)[C@@](C(=O)OC)(c3cc4c(cc3OC)N(C=O)[C@H]3[C@@](O)(C(=O)OC)[C@H](OC(C)=O)[C@]5(CC)C=CCN6CC[C@]43[C@@H]65)C2)C1 [vincristine] + C#Cc1cccc(Nc2ncnc3cc(OCCOC)c(OCCOC)cc23)c1 [erlotinib] (first compound 0.0001 µM, partner dose 0.8 µM) | 76.4%
CC[C@]1(O)C[C@H]2CN(CCc3c([nH]c4ccccc34)[C@@](C(=O)OC)(c3cc4c(cc3OC)N(C=O)[C@H]3[C@@](O)(C(=O)OC)[C@H](OC(C)=O)[C@]5(CC)C=CCN6CC[C@]43[C@@H]65)C2)C1 [vincristine] + Nc1cccc2c1CN(C1CCC(=O)NC1=O)C2=O [lenalidomide] (first compound 0.0001 µM, partner dose 1 µM) | 77%
N#CC[C@H](C1CCCC1)n1cc(-c2ncnc3[nH]ccc23)cn1 [ruxolitinib] + NC1(c2ccc(-c3nc4ccn5c(=O)[nH]nc5c4cc3-c3ccccc3)cc2)CCC1 [MK2206] (first compound 1 µM, partner dose 0.4 µM) | 118%
N#CC[C@H](C1CCCC1)n1cc(-c2ncnc3[nH]ccc23)cn1 [ruxolitinib] + C#Cc1cccc(Nc2ncnc3cc(OCCOC)c(OCCOC)cc23)c1 [erlotinib] (first compound 1 µM, partner dose 0.8 µM) | 114%
Cc1cc(Nc2cc(N3CCN(C)CC3)nc(Sc3ccc(NC(=O)C4CC4)cc3)n2)n[nH]1 [Tozasertib] + O=c1cc(-c2cccc3c2Sc2ccccc2S3)oc(N2CCOCC2)c1 [KU55933] (first compound 0.006 µM, partner dose 1 µM) | 117%
N#CC[C@H](C1CCCC1)n1cc(-c2ncnc3[nH]ccc23)cn1 [ruxolitinib] + COCC[n+]1c2c(n(Cc3cnccn3)c1C)C(=O)c1ccccc1C2=O [YM155] (first compound 1 µM, partner dose 0.0004 µM) | 120%
CC[C@]1(O)C[C@H]2CN(CCc3c([nH]c4ccccc34)[C@@](C(=O)OC)(c3cc4c(cc3OC)N(C=O)[C@H]3[C@@](O)(C(=O)OC)[C@H](OC(C)=O)[C@]5(CC)C=CCN6CC[C@]43[C@@H]65)C2)C1 [vincristine] + NC(=O)c1ccc(N(C(N)=O)c2c(F)cccc2F)nc1-c1ccc(F)cc1F [VX702] (first compound 0.0001 µM, partner dose 0.4 µM) | 95.7%
CC[C@]1(O)C[C@H]2CN(CCc3c([nH]c4ccccc34)[C@@](C(=O)OC)(c3cc4c(cc3OC)N(C=O)[C@H]3[C@@](O)(C(=O)OC)[C@H](OC(C)=O)[C@]5(CC)C=CCN6CC[C@]43[C@@H]65)C2)C1 [vincristine] + CC(=O)c1c(C)c2cnc(Nc3ccc(N4CCNCC4)cn3)nc2n(C2CCCC2)c1=O [palbociclib] (first compound 0.0001 µM, partner dose 0.04 µM) | 68.9%
N#CC[C@H](C1CCCC1)n1cc(-c2ncnc3[nH]ccc23)cn1 [ruxolitinib] + CCCS(=O)(=O)Nc1ccc(F)c(C(=O)c2c[nH]c3ncc(Cl)cc23)c1F [PLX4720] (first compound 1 µM, partner dose 0.08 µM) | 126%
Cc1cc(Nc2cc(N3CCN(C)CC3)nc(Sc3ccc(NC(=O)C4CC4)cc3)n2)n[nH]1 [Tozasertib] + N#CC[C@H](C1CCCC1)n1cc(-c2ncnc3[nH]ccc23)cn1 [ruxolitinib] (first compound 0.006 µM, partner dose 1 µM) | 96.5%
Cc1cc(Nc2cc(N3CCN(C)CC3)nc(Sc3ccc(NC(=O)C4CC4)cc3)n2)n[nH]1 [Tozasertib] + NC(=O)c1ccc(N(C(N)=O)c2c(F)cccc2F)nc1-c1ccc(F)cc1F [VX702] (first compound 0.006 µM, partner dose 0.4 µM) | 96.2%
CC[C@]1(O)C[C@H]2CN(CCc3c([nH]c4ccccc34)[C@@](C(=O)OC)(c3cc4c(cc3OC)N(C=O)[C@H]3[C@@](O)(C(=O)OC)[C@H](OC(C)=O)[C@]5(CC)C=CCN6CC[C@]43[C@@H]65)C2)C1 [vincristine] + C=C(c1ccc(C(=O)O)cc1)c1cc2c(cc1C)C(C)(C)CCC2(C)C [Bexarotene] (first compound 0.0001 µM, partner dose 2 µM) | 84.9%
